{"source": "PubChem BioAssay AID1347165", "about": "(National Center for Advancing Translational Sciences (NCATS), 2019)", "note": "“And” between values parts separate entries of the source, which are not always exact repeats. Identical values can stand only once. Screen size: about 220,000 compounds; about 5,700 (2.6%) were called active. The inconclusive results got no clear call from the source; some entries with a clear call stand among them for comparison. The call rests on the fitted dose curve; in most records, active means well fitted inhibition curve with a large enough effect; inconclusive means small, poorly fitted or top-dose-only effect; inactive means no such curve, though single readings can be large or run the other way. Where the call is inconclusive, the potency comes from a doubtful curve fit. Potency means the concentration at half of the fitted maximal effect; tags describe the fitted curve by direction and shape.", "data": [{"molecular_target": "Lysine-specific demethylase 5B (Homo sapiens) (UniProt Q9UGL1)", "sequence (Q9UGL1 whole entry, looked up)": "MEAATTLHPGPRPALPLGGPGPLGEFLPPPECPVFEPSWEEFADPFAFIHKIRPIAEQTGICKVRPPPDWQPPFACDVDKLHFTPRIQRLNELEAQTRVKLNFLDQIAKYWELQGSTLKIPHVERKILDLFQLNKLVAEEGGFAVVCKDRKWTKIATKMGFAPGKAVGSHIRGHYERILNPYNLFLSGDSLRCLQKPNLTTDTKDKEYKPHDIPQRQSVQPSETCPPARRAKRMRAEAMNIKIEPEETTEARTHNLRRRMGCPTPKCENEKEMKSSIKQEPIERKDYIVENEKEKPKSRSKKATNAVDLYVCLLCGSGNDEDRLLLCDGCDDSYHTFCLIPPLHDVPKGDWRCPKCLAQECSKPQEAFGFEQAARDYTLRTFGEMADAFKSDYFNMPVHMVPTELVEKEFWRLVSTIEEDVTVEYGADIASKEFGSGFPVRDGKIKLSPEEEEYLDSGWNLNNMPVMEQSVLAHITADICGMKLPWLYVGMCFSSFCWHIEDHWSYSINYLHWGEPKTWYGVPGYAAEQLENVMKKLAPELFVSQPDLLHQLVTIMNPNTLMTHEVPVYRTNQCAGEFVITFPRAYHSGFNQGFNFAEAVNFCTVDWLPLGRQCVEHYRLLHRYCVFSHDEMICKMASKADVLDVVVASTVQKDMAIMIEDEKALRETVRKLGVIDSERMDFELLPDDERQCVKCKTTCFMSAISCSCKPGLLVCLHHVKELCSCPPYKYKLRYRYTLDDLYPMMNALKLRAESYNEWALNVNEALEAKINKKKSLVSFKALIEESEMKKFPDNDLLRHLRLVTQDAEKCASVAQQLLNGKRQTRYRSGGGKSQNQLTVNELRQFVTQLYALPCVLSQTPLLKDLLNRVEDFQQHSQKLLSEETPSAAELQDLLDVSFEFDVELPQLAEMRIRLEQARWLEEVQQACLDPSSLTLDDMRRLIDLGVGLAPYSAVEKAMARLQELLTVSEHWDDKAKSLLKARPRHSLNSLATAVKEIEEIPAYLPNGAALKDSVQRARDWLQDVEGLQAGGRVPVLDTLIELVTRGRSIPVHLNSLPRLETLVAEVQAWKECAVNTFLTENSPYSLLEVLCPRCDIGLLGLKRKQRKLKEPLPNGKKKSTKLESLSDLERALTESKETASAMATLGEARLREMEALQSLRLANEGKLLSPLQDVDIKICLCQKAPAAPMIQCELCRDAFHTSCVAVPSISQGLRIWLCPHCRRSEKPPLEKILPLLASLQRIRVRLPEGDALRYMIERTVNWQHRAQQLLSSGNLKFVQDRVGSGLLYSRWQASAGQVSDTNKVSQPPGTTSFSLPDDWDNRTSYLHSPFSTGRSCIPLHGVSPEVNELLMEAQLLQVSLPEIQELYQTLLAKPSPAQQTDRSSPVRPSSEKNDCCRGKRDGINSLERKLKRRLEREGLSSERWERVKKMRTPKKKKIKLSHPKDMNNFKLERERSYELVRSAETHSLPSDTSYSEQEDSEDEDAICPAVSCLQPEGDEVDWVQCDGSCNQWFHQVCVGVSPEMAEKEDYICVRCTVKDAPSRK", "experiment": "Primary screen for KDM5B Histone Demethylases FDH-coupled qHTS; further: nearly all actives have a fitted effect of over 70% in size; on activity change, negative = inhibition: 0% is about no effect", "details": "FDH-coupled NADH fluorescence (FDH is formaldehyde dehydrogenase); activity change, negative = inhibition: at 57.7 µM (top of the series) unless noted", "outline": "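KDM5BΔAP (200 nM final) in 50 mM HEPES pH 7.5, 0.01% Tween-20 was preincubated 10 min at RT with compound over a concentration range. Substrate mix (H3K4me3 12.5 µM, α-KG 25 µM, Fe²⁺, ascorbate, NAD⁺, FDH) was added, and NADH fluorescence change over 30 min gave dose-response curves.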", "values": [{"compound": "CNc1ncnc2c1cnn2-c1ccc(C)c(C)c1", "Potency": "inconclusive: 35.5 µM [inhibitor, partial curve, poor fit]"}, {"compound": "Cc1ccccc1CNC(=O)CCCn1c(=O)c2cccn2c2cccnc21", "Potency": "inconclusive: 0.891 µM [inhibitor, partial curve, poor fit]"}, {"compound": "O=C(NC1CCCCCC1)c1nnn2cc(-c3ccc(Cl)cc3)[nH]c(=O)c12", "Potency": "inconclusive: 20 µM [inhibitor, partial curve, poor fit]"}, {"compound": "Cc1n[nH]c(C)c1C(NC(=O)c1c(C)c2cccc(C)c2n1C)C(=O)O", "note": "(stereo not given)", "activity change, negative = inhibition": "inactive: 5.13%"}, {"compound": "O=C(CCc1ncc(-c2ccccc2)o1)NC(C1CC1)C1CC1", "activity change, negative = inhibition": "inactive: -11.1%"}, {"compound": "Cc1noc2c(NCc3ccccc3)cc(-c3ccccc3)nc12", "Potency": "inconclusive: 39.8 µM [inhibitor, partial curve, poor fit]"}, {"compound": "CC(C)=CCC/C(C)=C/C=N/NC(=S)Nc1ccc(C)cc1", "activity change, negative = inhibition": "inactive: -27.6%"}, {"compound": "CCOCC1(C)COc2ccc(C(=O)Nc3ccccn3)cc2N1", "note": "(stereo not given)", "Potency": "active: 31.6 µM"}, {"compound": "COc1cc(NC(=O)COc2ccc3c(C)cc(=O)oc3c2)cc(OC)c1", "Potency": "inconclusive: 14.1 µM [inhibitor, partial curve, poor fit]"}, {"compound": "Cc1cc(=O)oc2cc(OC(C)C(=O)O)c(Cl)cc12", "note": "(stereo not given)", "Potency": "inconclusive: 28.2 µM [inhibitor, partial curve, poor fit]"}, {"compound": "CCOC(=O)c1c(-c2ccc(OC)cc2)oc2ccc(OCc3ccccc3C)cc12", "Potency": "inconclusive: 2.51 µM [inhibitor, partial curve, poor fit]"}, {"compound": "COC(=O)CC[C@H]1CNC(=O)[C@@H]2[C@@H](CCN2Cc2nc3ccccc3n2C)N1C", "Potency": "inconclusive: 28.2 µM [inhibitor, partial curve]"}, {"compound": "Cc1ccsc1C(=O)NC1CCN(c2cc(-c3ccc(Cl)cc3)[nH]n2)C1", "note": "(stereo not given)", "Potency": "inconclusive: 2.82 µM [inhibitor, full curve]"}, {"compound": "CCOC(=O)c1c(C)[nH]c(C)c1S(=O)(=O)N1CCCC(C(=O)NCc2cccc(C)c2)C1", "note": "(stereo not given)", "activity change, negative = inhibition": "inactive: -22.5%"}, {"compound": "Cc1cccn2c(=O)c(C(=O)NCc3ccc(F)cc3)c(O)nc12", "activity change, negative = inhibition": "inactive: -5.65%"}, {"compound": "CCCNc1cc(N2CCC(CCC(=O)NCc3ccccc3Cl)CC2)ncn1", "activity change, negative = inhibition": "inactive: -19.9%"}, {"compound": "COC(=O)c1cc2sc(C)cc2n1Cc1cccc(OC)c1", "Potency": "inconclusive: 17.8 µM [inhibitor, partial curve, poor fit] and inconclusive: 35.5 µM [inhibitor, single point]"}, {"compound": "CCC(=O)Nc1ccc2nnc(-c3ccc(C(=O)Nc4ccc(OC)cc4)cc3)n2c1", "Potency": "active: 25.1 µM"}, {"compound": "Cc1nc2cc(NC(C)c3nc(C(C)(C)C)no3)ccc2o1", "note": "(stereo not given)", "Potency": "inconclusive: 25.1 µM [inhibitor, single point]"}, {"compound": "COc1ccc(C2Nc3ccccc3-c3cc(C)nn32)cc1OC", "note": "(stereo not given)", "Potency": "inconclusive: 28.2 µM [inhibitor, partial curve, poor fit]"}, {"compound": "CCc1cccc(NC(=O)CN(C)Cc2ccc(C(F)(F)F)cc2)c1", "activity change, negative = inhibition": "inactive: -29.7%"}, {"compound": "Cc1ccc(NC(=O)COC(=O)c2cccc(O)c2)c(Br)c1", "activity change, negative = inhibition": "inactive: 4.11%"}, {"compound": "CCN(CC(=O)NCc1ccc(F)cc1)C(=O)c1ccc2[nH]c(C)c(C)c2c1", "activity change, negative = inhibition": "inactive: 5.29%"}, {"compound": "O=C(CCC(=O)N1CC2CCCN2c2ccccc21)NCc1ccc(Cl)cc1", "note": "(stereo not given)", "Potency": "inconclusive: 15.8 µM [inhibitor, partial curve, poor fit]"}, {"compound": "Cc1cccc(NC(=O)CSc2nnc3[nH]c(=O)cc(-c4ccccc4)n23)c1C", "Potency": "inconclusive: 28.2 µM [inhibitor, partial curve, poor fit]"}, {"compound": "CCOc1ccc(Nc2cc(C)nc3ccc(Cl)cc23)cc1", "Potency": "inconclusive: 39.8 µM [inhibitor, single point]"}, {"compound": "COc1cc(OC)c(C2=CCN(C(=O)COc3ccc(C)cc3Br)CC2)c(OC)c1", "activity change, negative = inhibition": "inactive: 17.8%"}, {"compound": "COc1ccccc1CCC(=O)N1C[C@@H](CO)[C@H](NC(C)=O)C1", "activity change, negative = inhibition": "inactive: 2.51%"}, {"compound": "C=CCc1ccccc1OCCN(C)Cc1ccccc1C(=O)O", "Potency": "inconclusive: 31.6 µM [inhibitor, partial curve, poor fit]"}, {"compound": "Cc1ccc(Cn2c(C(=O)NCc3ccccc3Cl)cc3sccc32)cc1", "Potency": "inconclusive: 1.41 µM [inhibitor, partial curve, poor fit]"}, {"compound": "COc1ccc(NC(=O)Cn2ccn3nc(-c4ccccc4)c(CO)c3c2=O)cc1", "Potency": "inconclusive: 20 µM [inhibitor, partial curve]"}, {"compound": "CC(C)c1cc(C(N)=O)c(NC(=O)Cc2c(F)cccc2Cl)s1", "activity change, negative = inhibition": "inactive: -1.36%"}, {"compound": "Cc1ccc(NC(=O)Cn2ncn3c(cc4ccccc43)c2=O)cc1F", "Potency": "inconclusive: 39.8 µM [inhibitor, single point]"}, {"compound": "CC(C)CCN1CCc2nc(C(C)C)nc(-c3ccc(Cl)cc3)c2CC1", "Potency": "inconclusive: 22.4 µM [inhibitor, full curve, poor fit]"}, {"compound": "COc1ccc(-c2nc3ccc(NS(=O)(=O)c4ccc(C)cc4)cc3o2)cc1", "Potency": "inconclusive: 25.1 µM [inhibitor, partial curve, poor fit]"}, {"compound": "Cc1ccc(CC(=O)NC2CCN(c3nnc4cccc(C)n34)CC2)cc1", "Potency": "active: 31.6 µM"}, {"compound": "CC(C)OCCCNC(=O)c1ccc(CSc2nc3cccnc3n2Cc2ccccc2)cc1", "Potency": "inconclusive: 17.8 µM [inhibitor, partial curve, poor fit]"}, {"compound": "Clc1cccc(CN2CCOC[C@H](Oc3cccnc3)C2)c1", "activity change, negative = inhibition": "inactive: -37.2% [at 86.2 µM]"}, {"compound": "CC(C)n1nc(OC(C)(C)C(=O)NCc2ccncc2)c2cc(CN3CCOCC3)ccc21", "Potency": "inconclusive: 28.2 µM [inhibitor, single point]"}, {"compound": "CCN(C(=O)c1nn(-c2ccc(OC)c(Cl)c2)c(=O)c2c1c1ccccc1n2C)c1cccc(C(F)(F)F)c1", "Potency": "inconclusive: 1 µM [inhibitor, partial curve, poor fit]"}, {"compound": "CCOc1ccc(NC(=O)c2c(NCc3ccc(C)o3)sc3c2CCC(C)C3)cc1", "note": "(stereo not given)", "Potency": "inconclusive: 14.1 µM [inhibitor, partial curve, poor fit]"}, {"compound": "CC(C)(C)c1ccc(-c2nc(C#N)c(N3CCOCC3)o2)cc1", "Potency": "inconclusive: 10 µM [inhibitor, partial curve, poor fit]"}, {"compound": "Cc1c(C(=O)Nc2ccc(S(=O)(=O)Nc3ncccn3)cc2)oc2ccc(F)cc12", "Potency": "inconclusive: 39.8 µM [inhibitor, single point]"}, {"compound": "COc1ccc(Cn2nnc(C(=O)Nc3cc(OC)ccc3OC)c2N)cc1", "Potency": "inconclusive: 25.1 µM [inhibitor, partial curve, poor fit]"}, {"compound": "FC(F)(F)Oc1ccc(Nc2cnc3ccc(N4CCOCC4)nn23)cc1", "Potency": "inconclusive: 35.5 µM [inhibitor, partial curve, poor fit]"}, {"compound": "COCCCNC(=O)C1CCN(Cc2nc(-c3ccc(OC)c(OC)c3)oc2C)CC1", "Potency": "inconclusive: 15.8 µM [inhibitor, partial curve, poor fit]"}, {"compound": "Cn1nc(C(=O)NN2C(=O)NC3(CCCCC3)C2=O)c2ccccc2c1=O", "activity change, negative = inhibition": "inactive: 16.1%"}, {"compound": "COc1ccc(OC)c(NC(=O)CN(C)S(=O)(=O)c2ccc3[nH]c4c(c3c2)CCCC4)c1", "Potency": "inconclusive: 35.5 µM [inhibitor, partial curve, poor fit]"}, {"compound": "CCOC(=O)C1=C(C)N=C2SC=C(CC(=O)N3CCCC3)N2C1c1cc(C)ccc1C", "note": "(stereo not given)", "Potency": "inconclusive: 20 µM [inhibitor, partial curve, poor fit]"}, {"compound": "O=C(NCCc1ccncc1)c1coc(COc2ccc(F)cc2Cl)n1", "activity change, negative = inhibition": "inactive: 7.7%"}, {"compound": "COc1cccc(NC(=O)CSc2nc3ccccc3n2C)c1", "activity change, negative = inhibition": "inactive: -6.99%"}, {"compound": "CC(C)Oc1cccc(-c2noc(-c3ccc(S(=O)(=O)NC4CC4)o3)n2)c1", "Potency": "inconclusive: 39.8 µM [inhibitor, single point]"}, {"compound": "COc1ccc(N2CC(c3noc(-c4ccc5c(c4)OCO5)n3)CC2=O)cc1OC", "note": "(stereo not given)", "Potency": "inconclusive: 25.1 µM [inhibitor, partial curve, poor fit]"}, {"compound": "CCOc1ccc(C(=O)Nc2cccc(-c3nc4cccnc4s3)c2)cc1", "activity change, negative = inhibition": "inactive: 2.06%"}, {"compound": "O=C(NCC1(COc2cccnc2)C[C@@H](O)[C@@H](O)C1)c1cnccn1", "note": "(stereo not given in full)", "activity change, negative = inhibition": "inactive: -17.4% [at 86.2 µM]"}, {"compound": "Cc1nc(S(=O)(=O)Nc2ccccc2C(=O)NCC2CC2)cn1C", "Potency": "inconclusive: 28.2 µM [inhibitor, partial curve, poor fit]"}, {"compound": "CCOC(=O)COc1ccc(C)cc1C(=O)c1ccn2nc(-c3ccc(C)cc3)cc2n1", "Potency": "inconclusive: 3.55 µM [inhibitor, full curve, poor fit]"}, {"compound": "CCCN1C(=O)C(Cc2nc3ccccc3c(=O)n2-c2ccccc2)c2cc(C)ccc21", "note": "(stereo not given)", "Potency": "inconclusive: 17.8 µM [inhibitor, partial curve, poor fit]"}, {"compound": "Cc1nn2c(c1-c1ccccc1[S+](C)(=O)[O-])N(CCCc1ccccc1)CCC2", "Potency": "active: 25.1 µM"}, {"compound": "O=C(N/N=C/c1ccc(OCCCOc2ccccc2Cl)cc1)c1ccccc1", "Potency": "inconclusive: 39.8 µM [inhibitor, single point]"}, {"compound": "CC(=O)NC1CC2(CCN(C(=O)CCCNC(=O)OC(C)(C)C)CC2)Oc2ccccc21", "note": "(stereo not given)", "Potency": "inconclusive: 50.1 µM [inhibitor, partial curve]"}, {"compound": "Fc1ccc(Nc2cnc3ccc(N4CCOCC4)nn23)cc1F", "Potency": "inconclusive: 50.1 µM [inhibitor, single point]"}, {"compound": "O=C(NCCC1CCN(Cc2ccccc2)CC1)C1CCN(c2cnn(Cc3ccccc3)c(=O)c2)C1", "note": "(stereo not given)", "activity change, negative = inhibition": "inactive: 10.6%"}, {"compound": "COc1ccc(C(=O)NCCc2sc(-c3ccc(Cl)cc3)nc2C)c(OC)c1", "Potency": "inconclusive: 28.2 µM [inhibitor, partial curve, poor fit]"}, {"compound": "COc1ccc(-c2nc(C)c(-c3ccccc3)s2)cc1OC", "Potency": "inconclusive: 1.78 µM [inhibitor, partial curve, poor fit]"}]}]}
